# Out of some 310,000 compounds screened, about 2,200 (0.71%) showed an effect of 50% or more. The effect is printed as a negative number. Some of the results follow.
# Biological target: human ether-à-go-go-related gene (hERG) potassium channel (human, UniProt Q12809)
# Experiment: primary screen, population patch clamp on CHO cells stably expressing hERG
# human ether-à-go-go-related gene (hERG) potassium channel, sequence (Q12809 whole entry, looked up): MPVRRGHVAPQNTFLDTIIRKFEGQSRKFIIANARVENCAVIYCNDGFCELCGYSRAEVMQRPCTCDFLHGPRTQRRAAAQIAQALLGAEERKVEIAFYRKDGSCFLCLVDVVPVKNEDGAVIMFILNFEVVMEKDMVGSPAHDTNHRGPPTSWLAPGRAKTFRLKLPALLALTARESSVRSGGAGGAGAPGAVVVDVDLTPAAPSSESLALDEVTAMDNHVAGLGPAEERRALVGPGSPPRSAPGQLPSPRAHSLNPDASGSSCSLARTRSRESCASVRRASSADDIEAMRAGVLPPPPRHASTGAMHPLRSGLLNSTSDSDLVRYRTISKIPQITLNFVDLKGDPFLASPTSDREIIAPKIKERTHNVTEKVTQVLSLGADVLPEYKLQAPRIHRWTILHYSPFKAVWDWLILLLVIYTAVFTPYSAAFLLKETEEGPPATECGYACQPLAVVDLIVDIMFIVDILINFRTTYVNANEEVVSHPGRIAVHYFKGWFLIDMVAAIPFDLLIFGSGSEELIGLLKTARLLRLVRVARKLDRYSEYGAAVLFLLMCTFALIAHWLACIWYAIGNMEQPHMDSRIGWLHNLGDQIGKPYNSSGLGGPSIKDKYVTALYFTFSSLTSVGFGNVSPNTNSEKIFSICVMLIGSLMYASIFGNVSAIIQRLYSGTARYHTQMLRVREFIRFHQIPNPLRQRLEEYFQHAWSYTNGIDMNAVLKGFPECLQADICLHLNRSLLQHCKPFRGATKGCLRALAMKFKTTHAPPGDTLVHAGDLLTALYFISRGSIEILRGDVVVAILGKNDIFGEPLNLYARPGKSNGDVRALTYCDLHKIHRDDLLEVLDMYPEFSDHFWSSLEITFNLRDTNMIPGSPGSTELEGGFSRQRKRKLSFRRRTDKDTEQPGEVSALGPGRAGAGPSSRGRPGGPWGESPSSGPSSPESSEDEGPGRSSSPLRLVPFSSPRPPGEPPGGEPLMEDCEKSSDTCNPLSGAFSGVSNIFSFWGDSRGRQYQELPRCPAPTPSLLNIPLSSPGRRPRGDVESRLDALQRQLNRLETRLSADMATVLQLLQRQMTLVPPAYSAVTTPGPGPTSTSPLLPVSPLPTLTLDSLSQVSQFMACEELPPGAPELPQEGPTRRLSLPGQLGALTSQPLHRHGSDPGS
row,SMILES,"hERG current change (%, negative = inhibition) at 1uM"
1,O=C1NCCn2ccc(=O)cc21,2.21%
2,O=C(Cc1ccccc1)c1nc2ccccc2s1,15%
3,C/C(N)=C(/C#N)C(=O)CSc1nc(-c2ccccc2)c(-c2ccccc2)o1,12.1%
4,CCOC(=O)c1[nH]c2c(c1C)C(=O)CC(c1ccc(OC)c(OC)c1)C2 (stereo not drawn),-4.12%
5,CC(Oc1cccc2cccnc12)C(=O)N/N=C/c1ccc2c(c1)OCO2 (stereo not drawn),11.3%
6,CC(C)c1ccc(NC(=O)Cn2cccc2C2=NC(c3ccccc3)CO2)cc1 (stereo not drawn),1.57%
7,O=c1[nH]c(=O)n(Cc2ccco2)c(O)c1C=NCCN1CCNCC1,9.92%
8,O=C(NC1CCCC1)c1cc2nc(-c3ccco3)cc(C(F)(F)F)n2n1,17%
9,CCOc1ccc(C(c2c(NC(=O)c3ccco3)sc(C)c2C)N2CCOCC2)cc1 (stereo not drawn),8.05%
10,COc1ccc(C(=O)N2CCN(C3CCC(c4ccccc4)CC3)CC2)cc1OC (stereo not drawn),-60.4%
11,CC(C)Cn1c(N)c(C(=O)COC(=O)[C@@H]2CCCN2C(=O)c2cccs2)c(=O)n(C)c1=O,8.91%
12,C=C(C)C(=O)Nc1ccc2c(c1)OCCOCCOCCO2,2.65%
13,O=C(/C=C/c1ccccc1)NCc1ccc2c(c1)OCO2,4.23%
14,Cc1cc(C(=O)CSc2nnc(-c3ccccc3)o2)c(C)n1CC1COc2ccccc2O1 (stereo not drawn),4.84%
15,CSc1ncc(C(=O)Nc2ccccc2)cn1,13.6%
16,CC(C)CC(=O)NNC(=O)c1ccc(Cl)cc1,19.9%
17,COc1ccccc1CN(C)C(=O)c1sccc1-c1ccccc1,15.4%
18,COc1ccc(C(=O)Nc2ccccc2C(=O)NC(Cc2c[nH]c3ccccc23)C(=O)O)cc1 (stereo not drawn),9.17%
19,COc1ccc(-c2cnc(N)nc2-c2ccc(OC)cc2O)cc1,10.5%
20,O=C(CNS(=O)(=O)c1c(Cl)cccc1Cl)OCc1csc(-c2ccccc2)n1,4.76%
21,CCc1ccc(Nc2cc(C(=O)NCCCN3CCOCC3)c3ccccc3n2)cc1,6.33%
22,CCC(=O)/C=C1/Sc2ccccc2N1CC,10.1%
23,COc1ccc(-n2c(Cc3cccn3C)nnc2SCC(=O)Nc2ccc(C)c(Cl)c2)cc1,-12.1%

row,SMILES,"hERG current change (%, negative = inhibition) at 1uM"
1,CN(C1CCS(=O)(=O)C1)S(=O)C12CC3CC(CC(C3)C1)C2 (stereo not drawn),18.1%
2,COC(=O)C1(C)NC(c2ccccc2F)C2C(=O)N(c3ccccc3)C(=O)C21 (stereo not drawn),13.3%
3,NC(=O)C1(N2CCCCC2)CCN(C(=O)NC2CCCCC2)CC1,8.49%
4,CCn1c(Cc2c(C)[nH]c3ccccc23)nnc1SCC(=O)NCc1ccccc1,14.7%
5,COCCNC(=O)/C(C#N)=C1\N=C(NC(=O)c2cccs2)c2ccccc21,-2.07%
6,COc1cc(CC(CC(=O)O)CC(C)OCc2ccccc2)cc(OC)c1 (stereo not drawn),13.6%
7,O=Nc1c(O)n(Cc2ccc(Cl)cc2)c2ccccc12,13.3%
8,O=C(O)c1ccc(Sc2ccccn2)c([N+](=O)[O-])c1,11.9%
9,COc1ccc(N2CCN(C(=O)COC(=O)c3cccc(S(=O)(=O)Nc4cccc(C)c4)c3)CC2)cc1,9.12%
10,Cc1cc(C)nc(CCNC(=O)c2cc(COc3ccc(F)cc3F)on2)n1,-6.46%
11,CC(=O)Nc1cccc(-c2csc(Nc3ccc(C)cn3)n2)c1,1.43%
12,Cc1ccc(S(=O)(=O)NCCSC(C)(C)C)cc1,-0.833%
13,COc1ccc(C2CC(C(F)(F)F)n3nc(C(=O)NCc4cn(C)nc4C)c(Cl)c3N2)cc1 (stereo not drawn),14.3%
14,OC(CCCN1CCC(O)(c2ccc(Cl)cc2)CC1)c1ccc(F)cc1 (stereo not drawn),-72.7%
15,N#Cc1ccc(CSc2nnc(-c3ccncc3)n2CCc2ccccc2)cc1,-78.2%
16,CCN(CC(=O)Nc1ccc(OC)cc1)C(=O)c1cc2c(s1)CCCCC2,11.2%
17,O=C(O)C1CN(c2ncccc2[N+](=O)[O-])C1,13.4%
18,N/C(=N\OC(=O)c1ccc(F)cc1)c1cccc([N+](=O)[O-])c1,17.5%
19,O=C(N/N=C/c1ccncc1)c1ccc(OCc2ccccc2)cc1,11.2%
20,O=C(NCCCN1CCCCCC1)C1CC(=O)N(C2CCCC2)C1 (stereo not drawn),1.87%
21,Cc1ccc(NC(=S)c2ccncc2)c(C)c1,12.4%
22,N#CC1=C(N)Oc2c(O)cc3ccccc3c2C1c1ccsc1 (stereo not drawn),9.46%
23,CCOc1cc(C2C(C#N)=C(N)OC(C)=C2C(C)=O)cc(Br)c1O (stereo not drawn),10.2%

row,SMILES,"hERG current change (%, negative = inhibition) at 1uM"
1,O=C(COC(=O)c1ccc(O)cc1O)Nc1ccc2ccccc2c1,12.4%
2,COc1ccc(S(=O)(=O)N2CCC(CN3C(=O)c4cccc5cccc(c45)C3=O)CC2)cc1,4.97%
3,CC(C)C[C@H](NC(=O)c1[nH]cnc1C(=O)N[C@@H](C)C(=O)OC(C)(C)C)C(=O)OCc1ccccc1,9.98%
4,COc1ccc(NS(=O)(=O)c2ccc3c(c2)CCO3)cc1,9.57%
5,Cn1c(=O)[nH]c(=O)c2c1nc(SCCN1CCOCC1)n2CCCc1ccccc1,-6.15%
6,Cc1ccc(CNC(=O)C2CNc3cc(C)ccc3O2)cc1 (stereo not drawn),3.24%
7,CCCOc1ccc2ccccc2c1/C=N/n1cnnc1,1.21%
8,CCN(CC)CCOC(=O)c1ccc(NC(=O)C(C)NC(=O)C23CC4CC(CC(C4)C2)C3)cc1 (stereo not drawn),6.42%
9,Cc1ccc2c(c1)C1CN(C)CCC1N2C(=O)c1cccnc1Cl.Cl (stereo not drawn),11.9%
10,CC1CC(C)CN(c2ccc([N+](=O)[O-])cc2-c2nn[nH]n2)C1 (stereo not drawn),2.23%
11,CC1(c2ccc3ccccc3c2)NC(=O)N(CC(=O)NCc2cccs2)C1=O (stereo not drawn),8.16%
12,CC(=O)c1cccc(-c2ccc3c(=O)[nH]c(Nc4ccccc4)cc3c2)c1,12.3%
13,CC(=O)C1=C(NC(=O)c2ccc(F)cc2)CC2C1C2(C)C (stereo not drawn),9.7%
14,COc1ccc(CNC(=O)C(=O)NCC2OCCN2S(=O)(=O)c2cccs2)cc1 (stereo not drawn),6.38%
15,S=c1[nH]ncc2ccccc12,9.69%
16,CCCn1c(N2CCN(C(=O)/C=C/C(=O)O)CC2)nc2ccccc21,14.7%
17,Cc1ccc2nc(N3CCN(Cc4nnnn4Cc4ccccc4)CC3)c(C#N)cc2c1,9.75%
18,CC(=O)Nc1ccc(/C=C/C(=O)c2ccc3c(c2)OCCO3)cc1,7.26%
19,COc1ccc(S(=O)(=O)N2CCCCCC2)cc1C(=O)OCc1cccc(OC)c1OC,13.7%
20,CS(=O)(=O)NCCSCc1c(F)cccc1Cl,9.1%
21,Cc1ccccc1-n1ncc(C(C)NC(=O)c2ccccc2)c1C (stereo not drawn),1.01%
22,O=C(CCC(=O)N1CCOc2ccccc21)N1CCOCC1,1.86%
23,Cc1ccc(-c2nc(C#N)c(NCc3ccco3)o2)cc1,11.1%

row,SMILES,"hERG current change (%, negative = inhibition) at 1uM"
1,CCCn1c(C(C)Nc2nc(C)cs2)nc2cc(Cl)c(Cl)cc21 (stereo not drawn),6.1%
2,CC(C)(C)NC(=O)CCSc1nnc(-c2ccco2)o1,3.27%
3,COc1cc(OC)cc(C(=O)NC2CCN(Cc3nnnn3Cc3ccc(F)cc3)CC2)c1,1.43%
4,COc1ccc(Br)cc1/C=C/C(=O)NC(=S)Nc1ccc(CN2CCOCC2)cc1,13.9%
5,Cc1cc(NC(=O)CSc2nc3cc(Cl)ccc3o2)no1,13.1%
6,O=c1[nH]c(N2CCOCC2)nc2ccccc12,7.8%
7,CCCN1CCC(N(CCc2ccccc2)Cc2ccccc2)CC1,-73.2%
8,CCOC(=O)c1[nH]c(C(=O)O)c(CCN(CC)CC)c1C,12.6%
9,Cc1c(C(=O)N2CCOCC2)c(S(=O)(=O)Nc2cccc(Br)c2)c(C)n1C,8.82%
10,CCOc1ccc(S(=O)(=O)NN=C2CCN(C(C)=O)CC2)cc1,2.55%
11,CCOC(=O)c1cccc(S(=O)(=O)N2CCOCC2)c1,16.7%
12,O=S(=O)(Nc1ccccc1O)c1cccc2cccnc12,10.7%
13,CC(C)=CCCC(C)NC(=O)NC1CCCCC1 (stereo not drawn),2.42%
14,S=C1NC2=C(CCC/C2=C\c2ccccc2)C(c2ccccc2)N1 (stereo not drawn),12.8%
15,COc1ccc(S(=O)(=O)Oc2ccc3ccccc3c2)cc1,10.7%
16,O=C(Nc1ccccc1C(F)(F)F)N1CCC(N2CCCCC2)CC1,6.21%
17,COCCN(C(=O)c1ccco1)c1nnc(-c2ccc(OC)c(OC)c2)s1,8.45%
18,Cn1cc2cc(NC(N)=S)ccc2n1,12.6%
19,CCc1ccc(C(=O)c2cncc(Br)c2)cc1,-0.414%
20,COc1ccc(NC(=O)N2CCN(c3ccc([N+](=O)[O-])cc3)CC2)cc1OC,-63.2%
21,Cc1cc(CC(C)C)n(-c2nc3ccccc3c(=O)n2OCC(N)=O)n1,-0.371%
